Experimental data reported in ChEMBL document CHEMBL3797127, “Design, synthesis and evaluation of pyrrolo[2,3-d]pyrimidine-phenylamide hybrids as potent Janus kinase 2 inhibitors” (Bioorg Med Chem Lett, 2016).

Tests used:
[1] = molecular target: T1, Tyrosine-protein kinase JAK2 (Homo sapiens, UniProt O60674)
[2] = molecular target: T1, Tyrosine-protein kinase JAK2; format: cell-based, TF-1

T1 sequence (O60674 whole entry): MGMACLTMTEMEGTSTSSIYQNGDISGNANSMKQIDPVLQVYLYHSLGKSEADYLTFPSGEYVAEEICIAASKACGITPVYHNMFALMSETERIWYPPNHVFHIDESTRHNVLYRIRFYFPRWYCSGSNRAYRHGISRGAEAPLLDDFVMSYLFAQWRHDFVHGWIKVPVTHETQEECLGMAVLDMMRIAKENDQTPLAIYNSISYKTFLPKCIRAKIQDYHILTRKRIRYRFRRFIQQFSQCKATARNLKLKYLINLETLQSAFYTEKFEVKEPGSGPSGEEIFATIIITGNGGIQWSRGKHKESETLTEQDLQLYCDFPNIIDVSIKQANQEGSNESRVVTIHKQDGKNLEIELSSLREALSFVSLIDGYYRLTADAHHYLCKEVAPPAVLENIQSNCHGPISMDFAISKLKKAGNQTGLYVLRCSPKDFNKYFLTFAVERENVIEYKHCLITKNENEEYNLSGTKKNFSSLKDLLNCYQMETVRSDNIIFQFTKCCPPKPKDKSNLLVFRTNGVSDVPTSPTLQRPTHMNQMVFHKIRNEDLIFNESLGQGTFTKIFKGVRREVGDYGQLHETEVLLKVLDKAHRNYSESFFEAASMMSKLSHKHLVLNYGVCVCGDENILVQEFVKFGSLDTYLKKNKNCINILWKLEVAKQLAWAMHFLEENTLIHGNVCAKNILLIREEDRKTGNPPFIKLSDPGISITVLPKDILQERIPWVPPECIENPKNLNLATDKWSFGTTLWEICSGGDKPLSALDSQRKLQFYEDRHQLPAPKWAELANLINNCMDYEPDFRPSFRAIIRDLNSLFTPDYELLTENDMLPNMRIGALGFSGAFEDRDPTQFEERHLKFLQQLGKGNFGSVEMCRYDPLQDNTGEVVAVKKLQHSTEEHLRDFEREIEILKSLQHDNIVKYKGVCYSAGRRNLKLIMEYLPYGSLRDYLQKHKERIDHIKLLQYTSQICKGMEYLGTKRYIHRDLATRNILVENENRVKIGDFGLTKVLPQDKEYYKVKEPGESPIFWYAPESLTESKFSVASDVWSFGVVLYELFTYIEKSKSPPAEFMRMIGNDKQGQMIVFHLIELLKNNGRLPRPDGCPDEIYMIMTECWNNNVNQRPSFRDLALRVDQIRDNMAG

In the case of CC(=O)Nc1ccc(-c2ncnc3c2cc(C(N)=O)n3C)cc1, the IC50 [1] is reported as 184 nM and the IC50 [2] is reported as > 20000 nM.

Cn1c(C(=O)NCCN2CCCC2)cc2c(-c3ccc(NC(=O)[C@@H]4CCCN4C(=O)OC(C)(C)C)cc3)ncnc21 was tested, and the IC50 [1] was 9 nM and the IC50 [2] was 520 nM.

In the case of Cn1c(C(=O)OCc2ccccc2)cc2c(-c3ccc(NC(=O)[C@@H]4CCCN4C(=O)OC(C)(C)C)cc3)ncnc21, the IC50 [1] is reported as > 1000 nM and the IC50 [2] is reported as > 20000 nM.

C[C@H](NC(=O)OC(C)(C)C)C(=O)Nc1ccc(-c2ncnc3c2cc(C(=O)OCc2ccccc2)n3C)cc1 was tested, and the IC50 [1] was 475 nM and the IC50 [2] was > 20000 nM.

CC(=O)Nc1ccc(-c2ncnc3c2cc(C(=O)OCc2ccccc2)n3C)cc1 gave an IC50 [1] of 732 nM.

CC(=O)Nc1ccc(-c2ncnc3c2cc(C(=O)NCCN2CCCC2)n3C)cc1 was tested, and the IC50 [1] was 155 nM and the IC50 [2] was 4300 nM.

CCC(=O)Nc1ccc(-c2ncnc3c2cc(C(=O)OCc2ccccc2)n3C)cc1 gave an IC50 [1] of 531 nM.

For C[C@H](NC(=O)OC(C)(C)C)C(=O)Nc1ccc(-c2ncnc3c2cc(C(=O)NCCN2CCCC2)n3C)cc1, the IC50 [1] was 21 nM and the IC50 [2] was 1400 nM.

CCC(=O)Nc1ccc(-c2ncnc3c2cc(C(=O)NCCCN2CCOCC2)n3C)cc1 was tested, and the IC50 [1] was 23 nM and the IC50 [2] was > 20000 nM.

In the case of CCC(=O)Nc1ccc(-c2ncnc3c2cc(C(N)=O)n3C)cc1, the IC50 [1] is reported as 97 nM and the IC50 [2] is reported as 15800 nM.

In the case of Cn1c(C(=O)NCCN2CCCC2)cc2c(-c3ccc(NC(=O)c4ccc(C#N)cc4)cc3)ncnc21, the IC50 [1] is reported as 41 nM and the IC50 [2] is reported as 17500 nM.

With Cn1c(C(N)=O)cc2c(-c3ccc(NC(=O)c4ccccc4)cc3)ncnc21 the IC50 [1] was 908 nM and the IC50 [2] was > 20000 nM.

Cn1c(C(=O)NCCN2CCCC2)cc2c(-c3ccc(NC(=O)C(C)(C)C)cc3)ncnc21 showed an IC50 [1] of 8 nM and an IC50 [2] of 300 nM.

Cn1c(C(=O)OCc2ccccc2)cc2c(-c3ccc(NC(=O)C(C)(C)C)cc3)ncnc21 gave an IC50 [1] of 786 nM.

For Cn1c(C(=O)NCCCN2CCOCC2)cc2c(-c3ccc(NC(=O)C(C)(C)C)cc3)ncnc21, the IC50 [1] was 6 nM and the IC50 [2] was 140 nM.

Compound Cn1c(C(N)=O)cc2c(-c3ccc(NC(=O)C(C)(C)C)cc3)ncnc21 has an IC50 [1] of 20 nM and an IC50 [2] of 910 nM.

Compound CC(=O)Nc1ccc(-c2ncnc3c2cc(C(=O)NCCCN2CCOCC2)n3C)cc1 has an IC50 [1] of 36 nM and an IC50 [2] of 9600 nM.

For Cn1c(C(N)=O)cc2c(-c3ccc(NC(=O)c4ccc(C#N)cc4)cc3)ncnc21, the IC50 [1] was > 1000 nM.

With Cn1c(C(N)=O)cc2c(-c3ccc(NC(=O)[C@@H]4CCCN4C(=O)OC(C)(C)C)cc3)ncnc21 the IC50 [1] was 33 nM and the IC50 [2] was 1200 nM.

CCC(=O)Nc1ccc(-c2ncnc3c2cc(C(=O)NCCN2CCCC2)n3C)cc1 was tested, and the IC50 [1] was 67 nM and the IC50 [2] was 2900 nM.

In the case of Cn1c(C(=O)OCc2ccccc2)cc2c(-c3ccc(NC(=O)c4ccc(C#N)cc4)cc3)ncnc21, the IC50 [1] is reported as > 1000 nM.

Compound Cn1c(C(=O)NCCCN2CCOCC2)cc2c(-c3ccc(NC(=O)[C@@H]4CCCN4C(=O)OC(C)(C)C)cc3)ncnc21 has an IC50 [1] of 10 nM and an IC50 [2] of 270 nM.

For Cn1c(C(=O)NCCN2CCCC2)cc2c(-c3ccc(NC(=O)c4ccccc4)cc3)ncnc21, the IC50 [1] was 78 nM.

Work on Cn1c(C(=O)NCCCN2CCOCC2)cc2c(-c3ccc(NC(=O)c4ccccc4)cc3)ncnc21 yielded an IC50 [1] of 94 nM.

With C[C@H](NC(=O)OC(C)(C)C)C(=O)Nc1ccc(-c2ncnc3c2cc(C(=O)NCCCN2CCOCC2)n3C)cc1 the IC50 [1] was 17 nM and the IC50 [2] was 9300 nM.

In the case of C[C@H](NC(=O)OC(C)(C)C)C(=O)Nc1ccc(-c2ncnc3c2cc(C(N)=O)n3C)cc1, the IC50 [1] is reported as 51 nM and the IC50 [2] is reported as 4800 nM.

In the case of Cn1c(C(=O)OCc2ccccc2)cc2c(-c3ccc(NC(=O)c4ccccc4)cc3)ncnc21, the IC50 [1] is reported as > 1000 nM.

With Cn1c(C(=O)NCCCN2CCOCC2)cc2c(-c3ccc(NC(=O)c4ccc(C#N)cc4)cc3)ncnc21 the IC50 [1] was 81 nM and the IC50 [2] was > 20000 nM.
